Screen size: about 44,000 compounds; about 340 (0.77%) were called active. The shares of active, inactive and inconclusive entries below differ from those in the screen. The call rests on the fitted dose curve; in most records, active means well fitted inhibition curve with a large enough effect; inconclusive means small, poorly fitted or top-dose-only effect; inactive means flat fitted curve, though single readings scatter. No potency is given beside an inconclusive call; the fits are too rough.
Experiment: Acumen qHTS Assay for Inhibitors of the mTORC1 Signaling Pathway in MEF (Tsc2-/-, p53-/-) Cells: Sytravon; further: nearly all actives have a fitted effect of over 50% in size
Conditions: phospho-rpS6 immunofluorescence/PI, 24 h; series mostly up to 38.3 µM
Description: NIH Molecular Libraries Probe Production Centers Network [MLPCN] NIH Chemical Genomics Center [NCGC] MLPCN Grant: NS059428-01 Assay Submitter (PI): Blenis, John; Hoffman, Greg; Harvard University NCGC Assay Overview: The mammalian target of rapamycin (mTOR) is an intracellular serine/threonine kinase Aberrant regulation of mTOR signaling plays a causative role in a number of human diseases, including cancer, benign tumors such as lymphangioleiomyomatosis (LAM) and Tuberous Sclerosis Complex (TSC), and metabolic diseases such as diabetes and obesity. This project aims to identify inhibitors of ribosomal protein S6 (rpS6) phosphorylation. The phosphorylation of rpS6 is a key event downstream of mTOR activation. The assay uses a phospho-specific antibody of phospho-rpS6 to detect inhibitors of mTOR activation. Mutations in the Tsc1 and Tsc2 genes are the underlying genetic lesions responsible for TSC, causing constitutive activation of the mTORC1 pathway and leading to profound effects on cell metabolism. Aberrant metabolism in cancer has recently received significant attention as a target to develop therapeutic agents in the treatment of cancer.1 As Tsc2-/- cells have lost the ability to respond to energy and growth factor deprivation, these cells are unable to properly down regulate cellular biosynthetic processes in response to metabolic stress, and are thus extremely sensitive to glucose deprivation-induced death.2 A central goal of this project is to explore the unique cell survival and metabolic properties of cells with Tsc1 or Tsc2 by screening for compounds that selectively target the Tsc2-/- MEFs by screening both Tsc2-/- and WT MEF cell lines. We hope to better understand these aspects of TSC physiology in order to exploit them for therapeutic benefit.
NCGC Acumen Assay Protocol Summary: For quantitative high throughput analysis of mTORC1 signaling, we developed a cell-based assay for immuno-fluorescence based detection of rpS6 phosphorylation on the Acumen Explorer that will be used a platform for the primary small molecule screen. Mouse embryonic fibroblasts (MEFs) are cultured in 1536-well plates using DMEM + 10% FBS. Twenty-four hrs after plating, test compounds (solubilized in DMSO) are delivered and incubated with the cells for 24 hrs at 37 degree Celsius. Following the incubation, media with compound is aspirated and the cells are fixed in 4% paraformaldehyde (PFA) containing PBS + 0.2% TX-100. Next, PFA is aspirated, cells are washed two times with PBS plus 0.2% TX-100 and the cells are blocked for 1 hr at room temperature (blocking buffer: LiCOR Blocking Buffer plus 0.2% TX-100). […] Cells are washed two times with PBS plus 0.2% TX-100, and stained with 10 uM propidium iodide (PI) for 20-25 minutes for cell number measurement (1:500 dilution of Hoescht staining is also added for IN Cell imaging). The plates are scanned on the Acumen Explorer laser scanning instrument (TTP Labtech) using the 488nm laser for simultaneous excitation of the Alexa-488 and PI. […] The normalized phospho-S6 staining is calculated as the ratio of the integrated Alexa 488 intensity divided by the integrated PI intensity for the single concentration rapamycin control (7.5 nM) and DMSO columns. […] Inhibition of the pathway is defined based on the normalized phospho-S6 intensity in rapamycin treated cells. Active cells are defined as those with a normalized phospho-S6 staining above this threshold, and each treatment is reported as the % positive cells in the well, where thresholds are defined by selecting wells with the highest and lowest signal and differentiating between the % non-active and % active populations. In addition to the pathway specific phospho-S6 endpoint, the number of PI stained cells from the Acumen is recorded as a measure of cell viability. The primary screen was performed with a MEF cell line in a defined genetic background, Tsc2-/-, p53-/- cell line stably transfected with an empty vector control (Tsc2-/- MEF).
With `CCCN(C(=O)c1cn(C)c(=O)c2cc(OC)c(OC)cc12)c1ccc(CC)cc1` the Potency was inconclusive [falling, partial curve, poor fit]. In the case of `O=C(Nc1ccc(Cl)cc1)C1CCC(CNS(=O)(=O)c2ccc(Br)s2)CC1` (centres undefined), the Potency is reported as inconclusive [falling, partial curve, poor fit]. With `CCOc1ccccc1CNC(=O)c1ccc(CS(=O)Cc2cccc(Cl)c2)o1` (centres undefined) the Potency was inconclusive [falling, single point]. In the case of `CSc1ccc(C2C(C(=O)Nc3ccccc3)=C(C)Nc3nc4ccccc4n32)cc1` (centres undefined), the Potency is reported as inconclusive [falling, single point]. For `Cc1ccc(NC(=O)CSc2ncc(-c3ccccc3)[nH]2)cc1`, the Potency was “inactive”. For `O=S(=O)(c1ccc(F)cc1)N(CC(O)Cn1c2ccccc2c2ccccc21)c1ccccc1` (centres undefined), the Potency was inconclusive [falling, single point]. For `COc1ccc(CNC(=O)c2ccc3c(c2)nc2n3CCCCC2)cc1`, the Potency was “inactive”. For `O=S(=O)(NCC(c1cccs1)S(=O)(=O)c1ccccc1)c1ccccc1` (centres undefined), the Potency was inconclusive [falling, partial curve, poor fit]. For `N#C/C(=C\c1ccc(OCc2ccc(Cl)cc2Cl)cc1)c1nc2ccccc2[nH]1`, the Potency was “inactive”. For `CC(=O)c1cccc(NS(=O)(=O)c2ccc3[nH]c4c(c3c2)CCCCC4)c1`, the Potency was inconclusive [falling, single point]. In the case of `COc1ccc(-c2noc(CSc3nnc(C)n3-c3ccc(F)cc3)n2)cc1`, the Potency is reported as “inactive”. For `Cc1cn2c(=O)c(S(=O)(=O)Nc3ccc(OC(F)(F)F)cc3)c(C)nc2s1`, the Potency was inconclusive [falling, partial curve, poor fit]. In the case of `Cc1ccc(F)cc1NC(=O)CSc1nc(-c2cccs2)cc(C(F)(F)F)n1`, the Potency is reported as inconclusive [falling, single point]. With `COc1ccc(NC(=O)c2oc3ccccc3c2NC(=O)c2cc3ccccc3o2)c(OC)c1` the Potency was inconclusive [falling, full curve, poor fit]. In the case of `CCOc1ccccc1CNC(=O)c1ccc(-n2c(C)cc3c2CCC(C)C3)cc1` (centres undefined), the Potency is reported as inconclusive [falling, partial curve, poor fit]. In the case of `COc1ccc(-n2c(=O)c3c(c4cc(OC)ccc4n3C)n(CCC(C)C)c2=O)cc1`, the Potency is reported as “inactive”. In the case of `O=C(Nc1ccccc1Br)c1cc(S(=O)(=O)NC2CCCCC2)ccc1F`, the Potency is reported as inconclusive [falling, partial curve, poor fit]. In the case of `CCOCCCNC(=O)c1ccc(Cn2c(=O)c3cccn3c3cccnc32)cc1`, the Potency is reported as “inactive”. For `CCN1CCN(c2cc(C)c3cc(NC(=O)/C=C/c4cccc(OC)c4OC)ccc3n2)CC1`, the Potency was inconclusive [falling, partial curve]. With `CCOC(=O)C1CCN(C(=O)c2ccc3c(c2)sc2nc(-c4ccc(OC)cc4)cn23)CC1` the Potency was inconclusive [falling, partial curve, poor fit]. With `Cc1c(C(=O)OC2CCCCCC2)[nH]c2c1C(=O)CC(c1ccccc1)C2` (centres undefined) the Potency was “inactive”. For `O=S(=O)(c1ccc(-c2csc(=Nc3ccc(F)cc3)n2CCCCCCO)cc1)N1CCCC1`, the Potency was inconclusive [falling, single point]. In the case of `COc1cc(NC(=O)Cn2ccc3ccccc3c2=O)cc(OC)c1OC`, the Potency is reported as inconclusive [falling, single point]. With `COc1cccc(-c2oc3ccc(C)cc3c(=O)c2O)c1` the Potency was inconclusive [falling, single point]. In the case of `CCOc1ccc(C2CC(=O)Nc3cc4c(cc32)OCO4)cc1OC` (centres undefined), the Potency is reported as inconclusive [falling, partial curve, poor fit]. With `COc1ccc(CN2CCc3c(c(=O)n4ncc(C(=O)N5CCN(c6ccc(F)cc6)CC5)c4n3C)C2)cc1` the Potency was “inactive”. For `Cc1c(Cl)cccc1NC(=O)Cn1cc(C(=O)c2cccs2)c2ccccc21`, the Potency was inconclusive [falling, partial curve]. For `CC(C)CN(CC(C)C)S(=O)(=O)c1ccc(C(=O)Nc2sc3c(c2C(N)=O)CC(C)(C)NC3(C)C)cc1`, the Potency was inconclusive [falling, single point]. For `CCOc1ccccc1NC(=O)c1c(NCc2cccs2)sc2c1CCC(C)C2` (centres undefined), the Potency was inconclusive [falling, single point]. For `COc1cc(NC(=O)CSc2nc(-c3ccco3)cc(C(F)(F)F)n2)cc(OC)c1OC`, the Potency was “inactive”. For `CCN(Cc1ccccc1)C(=O)CN1C(=O)COc2ccc(S(=O)(=O)NC3CCCC3)cc21`, the Potency was inconclusive [falling, partial curve, poor fit]. With `CCOc1ccc(-c2csc(/C(C#N)=C/c3ccc(Br)cc3)n2)cc1` the Potency was “inactive”. With `CCCn1c(NCc2ccc(N(CC)CC)cc2)nc2ccccc21` the Potency was inconclusive [falling, single point]. In the case of `CN1CCN(c2nc3c(S(=O)(=O)c4ccccc4)nnn3c3ccsc23)CC1`, the Potency is reported as inconclusive [falling, partial curve, poor fit]. With `COC(=O)c1c(C)oc2ccc(N(C(=O)c3ccncc3)S(=O)(=O)c3c(C)cc(C)cc3C)cc12` the Potency was “inactive”. For `Cc1sc2ncn(CC(=O)N3CCN(c4ccc(Cl)cc4)CC3)c(=O)c2c1S(=O)(=O)N1CCN(c2ncccn2)CC1`, the Potency was inconclusive [falling, single point]. In the case of `CCOC(=O)c1cc2c(=O)n3ccccc3nc2n(Cc2ccco2)c1=NC(=O)c1c(F)cccc1Cl`, the Potency is reported as “inactive”. With `COc1ccc(/C=C/c2nc(C#N)c(NCCc3ccccc3)o2)cc1OC` the Potency was inconclusive [falling, partial curve, poor fit]. For `COc1ccc(NC(=O)c2c(C)oc3ccc(O)c(CN4CCCCCC4)c23)cc1Cl`, the Potency was inconclusive [falling, single point]. For `Cc1ccccc1C(=O)Nc1c(C)nc(Nc2ccccc2)nc1Nc1ccccc1`, the Potency was inconclusive [falling, single point]. With `O=C(NCCc1ccccc1Cl)c1ccc2c(=O)n(-c3ccccc3)c(=O)[nH]c2c1` the Potency was inconclusive [falling, single point]. In the case of `O=C(CSc1nc(Nc2ccc(F)cc2)c2ccccc2n1)c1ccc(F)cc1`, the Potency is reported as inconclusive [falling, single point]. For `CCN(C(=O)Cn1cnc2onc(-c3ccc(F)cc3)c2c1=O)c1ccc(OC)cc1`, the Potency was “inactive”. With `O=C(c1ccc(Nc2nc3ccccc3n3nnnc23)cc1)N1CCN(c2cccc(C(F)(F)F)c2)CC1` the Potency was “inactive”. With `Cc1ccc(C)c(NS(=O)(=O)c2cc3c4c(c2)C(C)C(=O)N4CCC3)c1` (centres undefined) the Potency was “inactive”. In the case of `Cc1ccc(NC(=O)C2CCN(c3nnc(C)c4c(C)n(-c5ccccc5)nc34)CC2)cc1Cl`, the Potency is reported as “inactive”. In the case of `CCN(CC)CCCNC(=O)c1ccc2c(Cl)c3c(nc2c1)CCCC3`, the Potency is reported as inconclusive [falling, single point]. For `COCCNC(=O)c1ccc2c(c1)N=C(C)c1cc(C)ccc1S2`, the Potency was inconclusive [falling, full curve]. For `CCCCC1CCC(C(=O)N2CC(=O)Nc3ccc(Cl)cc3C2c2ccc(F)cc2)CC1` (centres undefined), the Potency was inconclusive [falling, full curve, poor fit]. For `CCCN(C(=O)Cn1ncc2c([nH]c3ccc(C)cc32)c1=O)c1ccccc1C`, the Potency was inconclusive [falling, single point]. For `CCOc1ccccc1NC(=O)c1c(NCc2sccc2C)sc2c1CCC(C)C2` (centres undefined), the Potency was active: 14.7 µM. In the case of `O=S(=O)(Nc1cccc(-c2ccc(N3CCCC3)nn2)c1)c1ccc(F)c(C(F)(F)F)c1`, the Potency is reported as “inactive”. In the case of `O=C(NCCCN1CCN(c2ccccc2F)CC1)c1cc2c(s1)-c1ccccc1OC2`, the Potency is reported as inconclusive [falling, single point]. In the case of `O=C(CCOc1ccccc1)N(Cc1cccnc1)c1nc2ccc(F)cc2s1`, the Potency is reported as “inactive”. For `CCN(C(=O)c1cc2c(=O)oc3ccc(C)cc3c2s1)c1ccccc1F`, the Potency was inconclusive [falling, single point]. In the case of `CCOc1ccc(-c2oc3cc(Cl)ccc3c(=O)c2O)cc1OC`, the Potency is reported as inconclusive [falling, single point]. In the case of `CCOC(=O)c1c(-c2ccccc2)oc2ccc(N(C(C)=O)S(=O)(=O)c3ccc(C)cc3)cc12`, the Potency is reported as inconclusive [falling, single point]. In the case of `CCN(C(=O)CSc1nc2ccccc2n1CC(=O)Nc1ccc(F)cc1F)c1ccccc1`, the Potency is reported as inconclusive [falling, single point]. With `COc1ccc(N2CC(NC(=O)c3ccco3)CC2=O)cc1OC` (centres undefined) the Potency was “inactive”. For `COc1ccc(CNc2oc(/C=C/c3cccc(OC)c3)nc2C#N)cc1`, the Potency was inconclusive [falling, single point]. For `CN(Cc1ccccc1)C(=O)c1cccc(NC(=O)c2nsc3ccccc23)c1`, the Potency was “inactive”. For `CCOc1ccc(CC(=O)NCCc2csc(-c3ccc(Cl)cc3)n2)cc1`, the Potency was inconclusive [falling, partial curve, poor fit]. In the case of `C=Cc1ccc(Cn2c(C(=O)O)c(CNCc3ccccc3)c3ccc(OC)cc32)cc1`, the Potency is reported as inconclusive [falling, single point]. With `COc1cc(Br)ccc1C1C(C(=O)Nc2ccc(C)cc2C)=C(C)Nc2nnnn21` (centres undefined) the Potency was inconclusive [falling, full curve, poor fit].

Reference: PubChem BioAssay AID493208 (National Center for Advancing Translational Sciences (NCATS), 2011)
Potency means the concentration at half of the fitted maximal effect; tags describe the fitted curve by direction and shape.
